According to PubChem BioAssay AID1508649 (National Center for Advancing Translational Sciences (NCATS), 2021):
In all, about 43,000 compounds went through this assay and about 830 (1.9%) were called active. This list was built around the results that the source calls inconclusive (neither active nor inactive); the mix of calls is not that of the screen. The calls were made as follows: active = clear falling dose curves in both reporters; inconclusive = both reporters move, but less clearly or upward; inactive = either reporter flat; the % is the NLuc reporter signal. Potencies of inconclusive entries are left out as doubtful fits.

Assay: Cell-based coincidence reporter assay to measure PMP22 gene transcription in S16 Pmp22-F2sN cells - Primary screen
Conditions: S16 Pmp22-F2sN Schwann cells (luciferase reporters placed in the Pmp22 gene), FLuc/NLuc coincidence luminescence, 24 h; measured here: NLuc reporter readout, at 57.5 µM (top of the series)
Text: Assay Provider: Jim Inglese Ph.D. National Center for Advancing Translational Science, National Institutes of Health, Rockville, MD CMT is a heterogeneous group of neurological disorders that affect approximately 1 in 2,500 people. In particular, the most common form of CMT, CMT1A is genetically linked to the duplication of the PMP22 gene which leads to Schwann cell overexpression, thus manifesting itself as a typical case of dose-sensitive diseases. To identify small molecule compounds that can mediate the expression of PMP22 we developed a phenotypic assay screening strategy by utilizing genome editing techniques to construct Schwann cell lines containing novel reporter technology to monitor the transcriptional or translational regulation of PMP22. For high sensitivity we use a bioluminescent reporter system embedded in the 3' UTR of the PMP22 gene (S16(c9) Pmp22-F2sN) to identify compounds that inhibit gene expression. […] We can further discriminate the effect of all transcriptionally active molecules on PMP22 translation or stability with an assay that incorporates a short NLuc peptide (HiBiT) at the C-terminus of expressed PMP22 (S16(f8) PMP22-HiBiT) allowing alpha complementation and luminescence detection of membrane-associated PMP22 protein. These assays were screened against the NCATS Sytravon Library Collection. Miniaturization of these assays to 1536-well plate format for quantitative high throughput screening (qHTS) yielded rich data sets immediately from the qHTS assay (S16(c9) Pmp22-F2sN), when compared with data from a cell viability assay (Cell TiterGlo) to identify compounds that decreased the output signals through cellular toxicity to streamline the selection process of actives for subsequent characterization using the HiBiT assay (S16(f8) PMP22-HiBiT).
Cell-based coincidence reporter assay to measure PMP22 gene transcription in S16 Pmp22-F2sN cells PROTOCOL TABLE (format as described by Inglese J, Shamu CE and Guy RK. 2007) SEQUENCE No. (e.g., 1, 2, 3, etc.); […] (e.g., Cells, Incubation, Reagent, etc.); VALUE and DESCRIPTION. 1. Cells. Add 500-1,000 cells in 4 uL in growth media (DMEM High Glucose, No Phenol Red media + 10% heat-inactivated FBS + 1% Pen/Strep supplemented media) per well into Greiner 1536-well white/solid bottom high base, TC-treated plates. 2. Compounds. Library compounds and controls added at 23nL per well, transferred by Pin Tool. 3. Incubation. Incubate plates at 37C, 5% CO2, 95% RH for 24 h. 4. Reagent. Add 3.5uL Nano-Glo Dual-Luciferase Reporter Assay System reagent 1: Lysis and FLuc reagent per well of Greiner 1536-well plates. 5. Incubation. Incubate plates at room temperature for 10 min., protect from light. 6. Detector. FLuc luminescence measured using CCD-based camera (Viewlux). 7. Reagent. Add 3.5uL Nano-Glo Dual-Luciferase Reporter Assay System reagent 2: Stop&Glo reagent per well of Greiner 1536-well plates. 8. Incubation. Incubate plates at room temperature for 10 min., protect from light. 9. Detector. NLuc luminescence measured using CCD-based camera (Viewlux). NOTES (numbers refer to Sequence numbers above; values are from representative experiments) 6. Luminescence Read #1 (FLuc): Clear filter; Exposure = 10 sec, Gain = High, Speed = Slow, Binning = 2X 9. Luminescence Read #2 (NLuc): Clear filter; Exposure = 1 sec, Gain = High, Speed = Slow, Binning = 2X REFERENCES: 1. Inglese J, Shamu CE and Guy RK, Reporting data from high throughput screening of small molecule libraries, Nature Chemical Biology, 2007, 3(8): 438-441. doi.org/10.1038/nchembio0807-438 2. Yasgar A, Shinn P, Jadhav A, Auld DS, Michael S, Zheng W, Austin CP, Inglese J and Simeonov A, Compound Management for Quantitative High-Throughput Screening. J. Assoc. Lab. Auto., 2008, 13: 79-89. doi: 10.1016/j.jala.2007.12.004
Potency is read from the fitted curve at half-maximal effect; tags tell the direction and shape of the fitted curve.

Structure (SMILES)	Potency
COc1ccc(N2CCN(c3c4c(nc5nncn35)CCC4)CC2)cc1	active: 13.4 µM
O=C(c1ccc2c(c1)N(Cc1ccc(Cl)cc1)C(=O)c1ccccc1S2=O)N1CCN(c2ccccc2F)CC1 (stereo not drawn)	inconclusive [phenotype inactive, single point]
CCOC(=O)c1ccc2c(c1)N(CC(=O)Nc1ccc(C)cc1C)C(=O)c1ccccc1S2	inactive
COc1ccccc1Cn1c(CNS(=O)(=O)c2ccccc2Cl)nc2cccnc21	inactive
Cc1c(Cl)cccc1Nc1nn2c(=O)c3ccc(C(=O)NCCc4ccccc4)cc3nc2s1	active: 10 µM
O=C(COc1ccc(Cl)cc1)Nc1ccccc1C(=O)OCc1cc(=O)n2ccsc2n1	inactive
COC(=O)c1ccccc1NC(=O)CSc1nc(-c2ccccc2)cc(C(F)(F)F)n1	inactive
COc1ccccc1CNC(=O)C1CCCN(c2nn3cc(-c4ccc(F)cc4)nc3s2)C1 (stereo not drawn)	inconclusive [phenotype inactive, single point]
CSc1ccc(CCNC(=O)CCc2c(C)nc3c(-c4ccccc4)c(C)nn3c2C)cc1	inconclusive [phenotype inactive, single point]
O=C(c1cnc2cc(-c3ccccc3)nn2c1)c1cc([N+](=O)[O-])ccc1O	inconclusive [phenotype inactive, partial curve, poor fit]
Cc1cc(C)cc(-n2ccnc2SCC(=O)Nc2nc3ccccc3s2)c1	inconclusive [phenotype inactive, single point]
Cc1cccc(C(=O)N2CCc3cc(CNC(=O)Cc4ccc(F)cc4)ccc32)c1	inconclusive [phenotype inactive, single point]
Cc1ccc(N2CCN(C(=O)c3c4c(nc5ccccc35)C(=O)N(C3CCCCC3)C4)CC2)c(C)c1	inconclusive [phenotype inactive, partial curve]
Cc1ccc(C)c(N2CCN(C(=O)Cn3c(-c4cccs4)cc4ccccc43)CC2)c1	inconclusive [phenotype inactive, partial curve, poor fit]
CCN(C(=O)Cn1cc(S(=O)(=O)Cc2ccccc2Cl)c2ccccc21)c1ccccc1	inconclusive [phenotype inactive, single point]
Cc1ccc(C)c(Nc2nn3c(=O)c4ccc(C(=O)NCCc5ccccc5)cc4nc3s2)c1	active: 13.3 µM
O=S(=O)(c1ccccc1F)N1CCC(Oc2ccc(-n3cnnn3)cc2)CC1	inconclusive [phenotype inactive, single point]
CCOc1ccc(CCNCc2c(C(=O)O)n(Cc3ccc(C)cc3)c3cc(OC)ccc23)cc1	inconclusive [phenotype inactive, single point]
CCOC(=O)c1nc(N2CCN(c3ccc(F)cc3)CC2)c2c(C)noc2n1	inactive
Cn1c(=O)n(C)c2cc(N3CCOCC3)c(NS(=O)(=O)c3ccc(C(C)(C)C)cc3)cc21	inactive

Structure (SMILES)	Potency
Cc1ccccc1CC1C(=O)Nc2ccc(Br)cc21 (stereo not drawn)	inactive
Cc1cccc(NS(=O)(=O)c2ccc3c(c2)[C@H]2C=CC[C@H]2[C@@H](c2ccc(F)cc2)N3)c1	inconclusive [phenotype inactive, single point]
CC1CCCN(c2c(S(=O)(=O)c3ccccc3)cnc3ccc(Cl)cc23)C1 (stereo not drawn)	inconclusive [phenotype inactive, single point]
COc1ccc(OC)c(NC(=O)CSc2ncc3c(n2)-c2ccccc2N(C)S3(=O)=O)c1	inconclusive [phenotype inactive, partial curve]
NC(=O)Cn1c(=O)n(CCCCCC(=O)NCc2ccc(F)cc2)c(=O)c2sccc21	inconclusive [phenotype inactive, single point]
CCOC(=O)C1=C(C)NC(=O)NC1c1cn(-c2ccccc2)nc1-c1ccc(OC(C)C)cc1 (stereo not drawn)	inconclusive [phenotype inactive, single point]
O=S(=O)(c1ccc(-c2cc(C(F)(F)F)on2)s1)N1CCN(c2ccc(F)cc2)CC1	inconclusive [phenotype inactive, partial curve, poor fit]
COc1cccc(C(=O)NCC(c2ccc(N(C)C)cc2)N2CCc3ccccc32)c1 (stereo not drawn)	inconclusive [phenotype inactive, single point]
Cc1ccc(CCNC(=O)c2c[nH]c3ccc(S(=O)(=O)Nc4ccc(C)cc4C)cc3c2=O)cc1	inconclusive [phenotype inactive, single point]
Cc1ccc2nc(-c3ccc(O)cc3)c(Nc3ccc(Cl)cc3)n2c1	inactive
COc1ccccc1NC(=O)Cn1c(=O)n(CCC(=O)NCC2CCCO2)c(=O)c2cc(OC)c(OC)cc21 (stereo not drawn)	inactive
Cc1ccc(NC(=O)Cn2c(=O)c3ccccc3n3nncc23)cc1	inconclusive [phenotype inactive, single point]
COc1ccc(Cn2c(=O)[nH]c3cc(C(=O)N4CCN(c5cccc(OC)c5)CC4)ccc3c2=O)cc1	inconclusive [phenotype inactive, partial curve, poor fit]
CCN(CC)S(=O)(=O)c1ccc2c(c1)N(CC(=O)N(C)Cc1ccccc1)C(=O)CO2	inconclusive [phenotype inactive, partial curve, poor fit]
COc1ccccc1N1CCN(c2ncnc3c2nc2n3CCCC2)CC1	inconclusive [phenotype inactive, single point]
COc1ccc(C)cc1NC(=O)C(=O)NCC1(c2ccccc2)CCCC1	inactive
COc1cc2ccccc2cc1C(=O)Nc1cc(-c2nc3ccccc3o2)ccc1C	inactive
Cc1ccc(S(=O)(=O)N2CCc3cc(C(=O)Nc4ccc(C)c(C)c4)ccc32)cc1	inconclusive [phenotype inactive, single point]
Cc1nnc(SCc2nc(-c3ccc(Cl)cc3)no2)n1-c1ccc(F)cc1	inconclusive [phenotype inactive, partial curve]
CCOc1ccccc1NC(=O)c1sc2nc(-c3ccc(OC)cc3)ccc2c1N	inconclusive [phenotype inactive, single point]

Structure (SMILES)	Potency
O=C(Cn1ncc2c3ccccc3n(Cc3ccc(Cl)cc3)c2c1=O)NCc1cccs1	inconclusive [phenotype inactive, single point]
CCCCOc1ccc(C(=O)NCCc2sc(-c3cccc(F)c3)nc2C)cc1	inconclusive [phenotype inactive, single point]
CC1=C(C(=O)OCC(C)C)C(c2ccc(OCc3ccccc3)cc2)N2C(=O)CCSC2=N1 (stereo not drawn)	inconclusive [phenotype inactive, single point]
Cc1ccc(Cl)cc1-n1ncc2c(NCCCn3ccnc3)ncnc21	inconclusive [phenotype inactive, single point]
CC1CN(C(=O)N2CCC(C(=O)NCCC3=CCCCC3)CC2)c2cc(Cl)ccc2O1 (stereo not drawn)	inconclusive [phenotype inactive, single point]
CCOc1cccc(CNc2ccc(O)cc2)c1OCc1ccccc1Cl	inconclusive [phenotype inactive, partial curve]
COc1ccc(-c2cn3c(n2)sc2cc(C(=O)Nc4ccccc4F)ccc23)cc1	inconclusive [phenotype inactive, partial curve, poor fit]
Cc1nc(-c2ccc(C)c(N3CCN(C(=O)Nc4ccc(Br)cc4)CC3)c2)no1	inconclusive [phenotype inactive, single point]
COc1ccc(-n2c(=O)c3sc4ccccc4c3n(CC(=O)N3CCCC3)c2=O)cc1	inactive
CCOCN(C(=O)Cn1c(C)nc2ccccc21)c1c(C)cccc1CC	inconclusive [phenotype inactive, single point]
COc1cc(OC)c(NC(=O)c2nc(-c3ccncc3)no2)cc1Cl	inactive
CCc1nnc(SCc2nc(-c3ccccc3F)oc2C)c2cc3sccc3n12	inconclusive [phenotype inactive, partial curve, poor fit]
CCOc1ccccc1NC(=O)c1c(NCc2ccc(OC)c(OC)c2OC)sc2c1CCC(C)C2 (stereo not drawn)	inconclusive [phenotype inactive, partial curve, poor fit]
COCCNc1cc(N2CCN(C3CCCCC3)CC2)c2noc3c2c1C(=O)c1ccccc1-3	inconclusive [phenotype inactive, single point]
CCOc1ccccc1NC(=O)c1ccc2c(c1)CCCN2S(C)(=O)=O	inconclusive [phenotype inactive, partial curve, poor fit]
Cc1ccc(S(=O)(=O)c2nnn3c2nc(N2CCC(C(N)=O)CC2)c2cc(Cl)ccc23)cc1C	active: 16 µM
COc1ccc(CNC(=O)C(=O)Nc2cc(Cl)ccc2OC)cc1	inactive
CCN(CC)c1ccc(NC(=O)CN2C(=O)c3cccnc3Oc3ccc(Cl)cc32)c(C)c1	inconclusive [phenotype inactive, single point]
